In PubChem BioAssay AID1346428 (National Center for Advancing Translational Sciences (NCATS), 2018):
Among all 48,000 compounds or so, about 1,200 (2.5%) were called active. Not shown: some 2% with an inconclusive outcome.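 Rule for the calls: active = activation of at least 60% and not above a set upper limit (about 1 call in 100 departs from these limits); inconclusive = activation of 40% to 60%, or above that upper limit; inactive = activation under 40%.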 The list shows a part of the results.

Target: Probable G-protein coupled receptor 32 (Homo sapiens) (UniProt O75388)
Test: qHTS for Agonists of Human Resolvin D1 Receptor DRV1; note: 0% is about no effect
Conditions: CHO-K1 GPR32 beta-arrestin PathHunter luminescence, 90 min; at 76.9 µM; active compounds read high; zero percent set by DMSO-only wells
Summary of the method: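 PathHunter beta-arrestin recruitment in CHO-K1 cells stably expressing ProLink-tagged GPR32. Cells were exposed to compound for 90 min at 37 C, then chemiluminescence was read after 1 h detection at ambient temperature; DMSO served as basal control.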

UniProt O75388, sequence (O75388 whole entry, looked up): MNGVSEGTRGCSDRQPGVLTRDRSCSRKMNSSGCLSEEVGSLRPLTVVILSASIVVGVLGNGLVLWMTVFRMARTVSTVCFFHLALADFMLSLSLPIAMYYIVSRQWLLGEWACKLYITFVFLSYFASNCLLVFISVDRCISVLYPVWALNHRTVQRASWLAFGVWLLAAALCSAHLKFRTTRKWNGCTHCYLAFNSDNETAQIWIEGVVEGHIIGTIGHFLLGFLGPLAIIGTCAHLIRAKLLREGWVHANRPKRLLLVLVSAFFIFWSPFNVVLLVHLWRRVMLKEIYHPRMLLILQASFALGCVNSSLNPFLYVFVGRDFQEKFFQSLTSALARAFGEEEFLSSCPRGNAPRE

| Compound | activation |
| --- | --- |
| COc1ccccc1CNC(=O)CN1C(=O)CSc2c1c(C)nn2-c1ccccc1 | inactive: -21.9% |
| CCCC(=O)NCC(c1ccc2c(c1)OCO2)N1CCOCC1 (configuration not stated) | inactive: 0.191% |
| O=C(COc1ccc(Cl)cc1)Nc1ccccc1C(=O)OCc1cc(=O)n2ccsc2n1 | inactive: -10.7% |
| Cc1cc(C)cc(N(CC(=O)NCc2ccccc2Cl)S(=O)(=O)c2c(C)[nH]c(=O)[nH]c2=O)c1 | inactive: -3.06% |
| CCOc1ccc(NC(=O)CN2CCSc3ccc(S(=O)(=O)N4CCCC4)cc32)cc1 | inactive: -0.037% |
| CCn1cc(S(=O)(=O)c2ccc(C)cc2C)c(=O)c2cc(F)c(N3CCCCC3)cc21 | inactive: -32.1% |
| COC(=O)c1c(NC(=O)/C=C/c2ccc(OC)c(OC)c2)sc2c1CCC2 | inactive: -17.9% |
| CCN(CC)c1cc2c(cc1F)c(=O)c(S(=O)(=O)c1ccccc1)cn2C | inactive: -8.36% |
| Cc1noc(Cn2c(=O)c3ccccc3n(CC(=O)Nc3ccc(C(C)C)cc3)c2=O)n1 | inactive: -29.7% |
| O=C(NCc1ccccc1)c1ccc2c(c1)nc1n2CCOC1 | inactive: -7.07% |
| COCCNC(=O)CSc1nnc2[nH]c(=O)cc(C)n12 | inactive: -11.4% |
| CCN(CC)c1ccc(NC(=O)CN2C(=O)c3cccnc3Oc3ccc(Cl)cc32)c(C)c1 | inactive: -6.85% |
| CCN(CC)CCCNC(=O)CN1C(=O)COc2ccc(S(=O)(=O)N3CCC(C)CC3)cc21 | inactive: -2.29% |
| CC(Nc1oc(-c2ccc(COc3ccc(Cl)cc3)o2)nc1C#N)c1ccccc1 (configuration not stated) | inactive: 6.88% |
| C[N+]1(C)CCCC(OC(=O)C(O)(c2ccccc2)c2ccccc2)C1 (configuration not stated) | inactive: -6.6% |
| CCc1ccccc1NS(=O)(=O)c1cc(Br)cc2c1N(C(=O)C1CC1)CC2 | inactive: 22.8% |
| CCc1cccc(NS(=O)(=O)c2cc(-c3cnc(C)o3)ccc2OC)c1 | inactive: 5.49% |
| CCOC(=O)Cn1c(=O)n(CC2CCCO2)c2nc(-c3c(F)cccc3Cl)nc(C(N)=O)c21 (configuration not stated) | inactive: -20.3% |
| CCn1c(=O)c2sccc2n2c(CCCC(=O)Nc3ccc(OC)c(OC)c3)nnc12 | inactive: -7.24% |
| COc1ccc(C(=O)Nc2nc3n(n2)C(c2ccc(F)cc2)C=C(c2ccc(Cl)cc2)N3)cc1 (configuration not stated) | inactive: 12.5% |
| CCOC(=O)c1ccc(NC(=O)c2cc3c([nH]c2=O)CC(c2ccccc2)CC3=O)cc1 (configuration not stated) | inactive: 0.63% |

| Compound | activation |
| --- | --- |
| N#C/C(=C1\SCC(c2ccccc2Cl)S1)n1ccnc1 (configuration not stated) | inactive: 42.2% |
| Cc1cccc(NC(=O)Cn2cc(S(=O)(=O)Cc3ccccc3Cl)c3ccccc32)c1 | inactive: 4.47% |
| COc1cccc(-c2n[nH]c3c2C(c2ccccn2)N(C)C3=O)c1 (configuration not stated) | inactive: -22.1% |
| O=C(CC1N=C2c3ccccc3N=C(SCC(=O)Nc3ccc(F)cc3)N2C1=O)NCc1ccc2c(c1)OCO2 (configuration not stated) | inactive: -20.7% |
| CCCCC1CCC(CCCC(C)CCC(=O)O)CC1 (configuration not stated) | inactive: -7.39% |
| COc1ccc(-n2cc(-c3ccc4c(c3)OCO4)n(CC(=O)Nc3cccc(C)c3)c2=O)cc1 | inactive: -20.3% |
| CSc1ncc(Cl)c(C(=O)N(Cc2ccc(C(C)C)cc2)C2CCS(=O)(=O)C2)n1 (configuration not stated) | inactive: -20.5% |
| Cc1ccccc1Cn1c(SCc2ccc(C(=O)NCCc3ccccc3)cc2)nc2ccncc21 | inactive: -9.82% |
| Cc1cc(C)n(C(C)CC(=O)Nc2ccc(C)c(F)c2)n1 (configuration not stated) | inactive: -8.16% |
| Cc1ccccc1CNC(=O)c1ccc(CN2CC(=O)N3CCCCC3C2=O)cc1 (configuration not stated) | inactive: -4.41% |
| CCc1nnc2c3ccccc3nc(N3CCN(c4cc(C)ccc4C)CC3)n12 | inactive: -5.51% |
| CCCN(CCC)C(=O)C1CCCN(c2ncnc3c2nc2n3CCCCC2)C1 (configuration not stated) | inactive: -22% |
| COc1ccc(N2CCN(S(=O)(=O)CCNC(=O)c3c(F)cccc3Cl)CC2)cc1 | inactive: -6.85% |
| COc1ccc(CNC(=O)C(=O)Nc2cc(Cl)ccc2OC)cc1 | inactive: 4.29% |
| Cc1ccccc1CN1C(=O)c2ccccc2S(=O)c2ccc(C(=O)NCc3ccc4c(c3)OCO4)cc21 (configuration not stated) | inactive: -14.6% |
| COc1cccc(CNC(=O)CCC(=O)N2CC(C)Sc3ccccc32)c1 (configuration not stated) | inactive: -24% |
| Cc1ccc(S(=O)(=O)c2nnn3c2nc(N2CCC(C(N)=O)CC2)c2cc(Cl)ccc23)cc1C | inactive: -6.59% |
| Cc1ccc(NS(=O)(=O)c2c(C)nc3sc(C)cn3c2=O)c(C)c1 | inactive: -17.8% |
| Cc1nc2c(c(C)nn2C(C)(C)C)c(C)c1CCC(=O)Nc1ccc(Br)cc1Br | inactive: -29% |
| CNCC[C@H](Oc1cccc2ccccc12)c1cccs1 | active: 99.1% |
| O=C(CCCN1CCC(O)(c2ccc(Br)cc2)CC1)c1ccc(F)cc1 | inactive: 7.39% |

| Compound | activation |
| --- | --- |
| Cc1ccc(NC(=O)[C@@H](c2ccccc2)N2Cc3ccccc3C2=O)cc1F | inactive: -9.61% |
| CCC(=O)Nc1cc2nn(-c3ccc(C)cc3)nc2cc1C | inactive: -72.4% |
| CCCc1nn2c(=O)cc(COC(=O)c3ccco3)nc2s1 | inactive: 7.4% |
| COc1ccc(CCNC(=O)Cn2c(=O)c3cccn3c3ccccc32)cc1OC | inactive: -8.67% |
| CC(=O)Nc1c(C)nn(-c2ccccc2)c1N1CCC(C(=O)Nc2cccc(C(F)(F)F)c2)CC1 | inactive: -11.9% |
| CCCCOc1ccccc1C1CC(=O)Nc2cc(OC)c(OC)cc21 (configuration not stated) | inactive: -11.6% |
| CCOC(=O)Cn1c(=O)n(CC2CCCO2)c2nc(-c3ccc(CC)cc3)nc(C(N)=O)c21 (configuration not stated) | inactive: -6.25% |
| O=C(CSc1ncc2c(n1)-c1ccc(Cl)cc1N(Cc1ccccc1)S2(=O)=O)Nc1ccccc1C(F)(F)F | inactive: -3.58% |
| Cc1c(C(=O)NCc2ccc(F)cc2)sc2nc(-c3ccc(F)cc3)cn12 | inactive: -0.292% |
| O=C(CCn1cnc2onc(-c3ccc(F)cc3)c2c1=O)N1CCN(c2ccccc2F)CC1 | inactive: 6.57% |
| COC(=O)c1ccccc1NC(=O)Cn1c(=O)cc(C)c2c(C)nn(-c3cccc(Cl)c3C)c21 | inactive: 10.3% |
| CCOC(=O)C1CCCN(C(=O)c2ccc(NC(=O)c3nsc4ccccc34)cc2)C1 (configuration not stated) | inactive: 3.13% |
| Cc1ccc2c(CC(=O)N(Cc3cccc(Cl)c3)C3CCS(=O)(=O)C3)coc2c1 (configuration not stated) | inactive: -9.07% |
| Cc1ccc(C(=O)CC2(O)C(=O)N(Cc3ccccc3)c3ccccc32)c(C)c1 (configuration not stated) | inactive: -12% |
| CNS(=O)(=O)c1cn(CC(=O)N2CCN(c3ccccc3OC)CC2)cc1S(=O)(=O)NC | inactive: 0.0762% |
| COc1ccc(Cl)cc1NC(=O)Cn1cnc2sc(C)c(S(=O)(=O)N3CCN(c4ccccc4OC)CC3)c2c1=O | inactive: -2.48% |
| COc1cccc(N2CCN(Cc3cc(=O)oc4cc(C)ccc34)CC2)c1 | inactive: -24.6% |
| Cc1ccc(-n2nnnc2CNC(=O)c2ccccc2C)cc1C | inactive: 15.3% |
| Cc1ccc2c(c1)C(c1ccc(F)cc1)N(C(=O)c1cccc(C(F)(F)F)c1)CC(=O)N2 (configuration not stated) | inactive: -17.1% |
| N#Cc1cccc(NC(=O)CCNS(=O)(=O)c2ccc3c(c2)CCN3C(=O)C2CC2)c1 | inactive: 15.6% |
| CC(C)OCCCN1C(=O)c2[nH]nc(-c3ccccc3O)c2C1c1cccc(OCc2ccccc2)c1 (configuration not stated) | inactive: 34.5% |

| Compound | activation |
| --- | --- |
| Cc1c2cnn(CC(=O)N3CCN(c4ccc(F)cc4)CC3)c(=O)c2c(C)n1Cc1ccccc1F | inactive: -11.2% |
| O=C(Nc1nnc(S(=O)(=O)N2CCc3ccccc32)s1)c1ccccc1Cl | inactive: 9.29% |
| CCOC(=O)c1c(C)[nH]c(CCC(=O)NCCCN2CCN(c3ccccc3F)CC2)c1C | inactive: -19.8% |
| COc1ccc(-c2nc(Cn3c(=O)cc(C)c4c(C)nn(-c5ccccc5)c43)c(C)o2)c(OC)c1 | inactive: -16% |
| CN(C)c1ccc(CNC(=O)Cn2ccc3cc(S(=O)(=O)N4CCCCCC4)ccc32)cc1 | inactive: -13.2% |
| Cc1cc(C)cc(-n2ccnc2SCC(=O)Nc2nc3ccc(C)cc3s2)c1 | inactive: -0.454% |
| Cc1ccccc1C(c1c(C)n(C)n(-c2ccccc2)c1=O)c1c(C)n(C)n(-c2ccccc2)c1=O | inactive: 15.7% |
| CC(C)CCNc1ncnc2c1cnn2-c1cccc(Cl)c1 | active: 91.6% |
| O=C(Cc1ccc(Cl)cc1)Nc1ccc2nn(-c3ccccc3)nc2c1 | active: 84.5% |
| COCCNC(=O)C(=O)NCC(c1cccnc1)N1CCN(c2ccccc2)CC1 (configuration not stated) | inactive: 6.74% |
| Cc1ccc(-n2c(SCC(=O)Nc3c(C)cccc3C)nc(O)c(C)c2=O)cc1 | inactive: -2.05% |
| CCC1CN(C(=O)N2CCC(C(=O)NCc3ccco3)CC2)c2ccccc2O1 (configuration not stated) | inactive: -9.71% |
| CC(=O)c1cccc(NC(=O)N2CCC(CN3CCCCC3)CC2)c1 | inactive: -1.7% |
| CC(C)c1ccc(NC(=O)Cn2c(=O)n(Cc3nc(-c4ccccc4)no3)c(=O)c3cc4c(cc32)OCO4)cc1 | inactive: 20.8% |
| CO[C@@]1(NC(=O)Cc2cccs2)C(=O)N2C(C(=O)O)=C(COC(N)=O)CS[C@@H]21 | inactive: -0.493% |
| CCOc1ccccc1NC(=O)CN1C(=O)C2(SCC(=O)N2c2ccc(C)cc2)c2ccccc21 (configuration not stated) | inactive: -9.19% |
| CCOc1ccc2c(c1)c(=O)c(C(=O)c1ccc(C)cc1)cn2Cc1ccccc1OC | inactive: 7.16% |
| CCS(=O)(=O)c1ncc(Cl)c(C(=O)N(Cc2ccccc2)c2ccc(OC)cc2)n1 | inactive: -11.1% |
| Cc1cc(C)c(CN2C(=O)c3ccccc3S(=O)(=O)c3ccc(C(=O)OCC4CCCO4)cc32)c(C)c1 (configuration not stated) | inactive: -7.82% |
